Assay results reported in paper PMC3493068.
Results are given in words; binding and its absence hold for the method and conditions named. Binding seen in cells or lysates may run through a third protein. Some binding calls cover weakened binding; strength is not graded here. Tags and fused reporters may be left off the sequences shown.

Chains of the proteins cited; added tags and fusions are not shown. Lines headed by an entry give the natural chain unless they say otherwise; changes in a name come on top. A line that says so, or that is headed by a name, gives the form on record, which may keep a tag or linker. Residues count along the entry.
wild-type dysferlin C2A-GST fusion protein (aa 1-129 of human dysferlin) (O75923, residues 1-129): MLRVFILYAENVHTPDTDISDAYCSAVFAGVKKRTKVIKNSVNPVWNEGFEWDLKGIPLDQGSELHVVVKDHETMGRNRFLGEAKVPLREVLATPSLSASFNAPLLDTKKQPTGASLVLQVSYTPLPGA
c-myc-tagged human dysferlin deletion mutant aa 130-2080 (without the C2A domain) (O75923, residues 130-2080): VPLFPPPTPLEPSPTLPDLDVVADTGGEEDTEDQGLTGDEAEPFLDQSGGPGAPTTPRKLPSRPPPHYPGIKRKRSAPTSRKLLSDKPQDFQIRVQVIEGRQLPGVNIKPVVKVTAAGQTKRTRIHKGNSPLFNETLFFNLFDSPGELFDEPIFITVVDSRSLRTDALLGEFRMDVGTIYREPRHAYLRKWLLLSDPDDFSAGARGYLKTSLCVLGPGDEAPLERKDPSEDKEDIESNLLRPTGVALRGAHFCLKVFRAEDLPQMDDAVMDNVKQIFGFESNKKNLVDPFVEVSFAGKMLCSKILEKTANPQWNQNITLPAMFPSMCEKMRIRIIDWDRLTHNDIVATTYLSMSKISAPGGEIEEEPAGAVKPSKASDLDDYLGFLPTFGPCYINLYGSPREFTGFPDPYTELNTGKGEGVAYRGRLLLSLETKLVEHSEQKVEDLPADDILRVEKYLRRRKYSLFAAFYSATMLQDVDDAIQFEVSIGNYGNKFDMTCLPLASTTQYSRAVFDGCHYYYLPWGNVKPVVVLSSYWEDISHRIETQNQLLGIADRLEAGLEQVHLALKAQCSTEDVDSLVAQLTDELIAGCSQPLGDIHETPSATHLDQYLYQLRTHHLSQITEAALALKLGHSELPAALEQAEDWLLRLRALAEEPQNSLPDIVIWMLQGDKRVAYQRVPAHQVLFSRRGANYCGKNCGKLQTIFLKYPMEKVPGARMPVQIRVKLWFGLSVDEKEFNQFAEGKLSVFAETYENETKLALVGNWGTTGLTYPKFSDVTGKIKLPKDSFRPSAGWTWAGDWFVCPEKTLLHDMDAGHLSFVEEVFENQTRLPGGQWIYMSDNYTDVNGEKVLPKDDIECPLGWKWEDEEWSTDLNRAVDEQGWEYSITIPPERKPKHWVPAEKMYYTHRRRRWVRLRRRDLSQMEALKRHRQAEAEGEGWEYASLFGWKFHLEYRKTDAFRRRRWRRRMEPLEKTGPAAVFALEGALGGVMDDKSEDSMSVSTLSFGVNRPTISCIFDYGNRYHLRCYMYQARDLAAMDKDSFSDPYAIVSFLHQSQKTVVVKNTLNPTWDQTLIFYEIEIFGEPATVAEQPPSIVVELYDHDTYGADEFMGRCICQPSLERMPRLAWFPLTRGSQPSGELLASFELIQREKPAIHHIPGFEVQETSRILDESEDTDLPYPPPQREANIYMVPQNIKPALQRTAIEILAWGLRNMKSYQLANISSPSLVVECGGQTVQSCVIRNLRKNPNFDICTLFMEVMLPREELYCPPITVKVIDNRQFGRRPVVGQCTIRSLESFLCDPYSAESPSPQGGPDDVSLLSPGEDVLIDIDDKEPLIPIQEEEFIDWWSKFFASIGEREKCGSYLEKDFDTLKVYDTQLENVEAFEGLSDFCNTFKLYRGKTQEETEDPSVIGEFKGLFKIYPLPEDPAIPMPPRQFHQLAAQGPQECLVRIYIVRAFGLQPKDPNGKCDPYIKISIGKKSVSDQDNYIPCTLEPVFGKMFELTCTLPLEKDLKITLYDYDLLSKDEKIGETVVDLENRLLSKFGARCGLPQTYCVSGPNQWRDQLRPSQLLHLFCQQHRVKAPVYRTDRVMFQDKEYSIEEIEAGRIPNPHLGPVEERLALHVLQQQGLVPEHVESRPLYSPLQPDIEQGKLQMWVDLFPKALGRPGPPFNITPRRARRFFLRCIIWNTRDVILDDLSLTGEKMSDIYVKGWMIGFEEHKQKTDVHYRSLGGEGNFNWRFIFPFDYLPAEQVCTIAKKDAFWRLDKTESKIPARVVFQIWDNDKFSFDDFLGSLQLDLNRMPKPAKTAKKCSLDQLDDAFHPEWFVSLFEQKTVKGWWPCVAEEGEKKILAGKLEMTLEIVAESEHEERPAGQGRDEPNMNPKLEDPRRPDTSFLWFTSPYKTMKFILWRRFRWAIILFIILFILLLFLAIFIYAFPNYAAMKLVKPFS

How the values were obtained:
[1] = biological target: V67D dysferlin C2A-GST fusion protein (aa 1-129 of human dysferlin) (human) (UniProt O75923); test: pull-down; C2A-GST fusion on glutathione Sepharose 4B; COS-7 lysate with FLAG-MG53 without DTT or NEM, cross-linked with glutaraldehyde (MG53 oligomers including dimers); absence of Ca2+ or free Ca2+ lower or higher than 10 uM; 2 hr at 4°C; only the target purified
[2] = biological target: W52R dysferlin C2A-GST fusion protein (aa 1-129 of human dysferlin) (human) (UniProt O75923); test: condition: only without NEM (MG53 dimers), in the absence of Ca2+; pull-down; C2A-GST fusion on glutathione Sepharose 4B; COS-7 lysate with FLAG-MG53 without DTT or NEM, cross-linked with glutaraldehyde (MG53 oligomers including dimers); absence of Ca2+ or free Ca2+ lower or higher than 10 uM; 2 hr at 4°C; only the target purified
[3] = biological target: T1, FLAG-tagged full-length human MG53 (human) (UniProt Q6ZMU5); test: cross-linking; COS-7 lysate with FLAG-MG53, with 5 mM DTT, 2 mM glutaraldehyde 5 min at room temperature, anti-FLAG immunoblot
T1 sequence: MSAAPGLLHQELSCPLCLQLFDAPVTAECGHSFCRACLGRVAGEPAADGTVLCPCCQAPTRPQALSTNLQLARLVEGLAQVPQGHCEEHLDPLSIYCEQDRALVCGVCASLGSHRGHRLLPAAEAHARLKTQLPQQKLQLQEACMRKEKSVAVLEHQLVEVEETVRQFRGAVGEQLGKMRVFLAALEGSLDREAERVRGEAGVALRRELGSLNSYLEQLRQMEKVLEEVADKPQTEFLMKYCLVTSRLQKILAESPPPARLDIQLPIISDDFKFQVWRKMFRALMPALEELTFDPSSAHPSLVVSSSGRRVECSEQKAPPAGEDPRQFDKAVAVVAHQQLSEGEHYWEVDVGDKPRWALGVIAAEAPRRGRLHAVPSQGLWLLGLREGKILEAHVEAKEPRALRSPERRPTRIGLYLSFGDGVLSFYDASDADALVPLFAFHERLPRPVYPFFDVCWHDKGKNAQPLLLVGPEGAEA

[4] = biological target: wild-type dysferlin C2A-GST fusion protein (aa 1-129 of human dysferlin) (human) (UniProt O75923); test: condition: only without DTT or NEM (MG53 dimers), at free Ca2+ lower or higher than 10 μM; pull-down; C2A-GST fusion on glutathione Sepharose 4B; COS-7 lysate with FLAG-MG53 without DTT or NEM, cross-linked with glutaraldehyde (MG53 oligomers including dimers); absence of Ca2+ or free Ca2+ lower or higher than 10 uM; 2 hr at 4°C; only the target purified
[5] = biological target: wild-type dysferlin C2A-GST fusion protein (aa 1-129 of human dysferlin) (human) (UniProt O75923); test: pull-down; C2A-GST fusion on glutathione Sepharose 4B; COS-7 lysate with FLAG-MG53 without DTT or NEM, cross-linked with glutaraldehyde (MG53 oligomers including dimers); free Ca2+ of 10 uM (printed 10 mM in the results); 2 hr at 4°C; only the target purified
[6] = biological target: V67D dysferlin C2A-GST fusion protein (aa 1-129 of human dysferlin) (human) (UniProt O75923); test: pull-down; C2A-GST fusion on glutathione Sepharose 4B; COS-7 lysate with FLAG-MG53 supplemented with 5 mM NEM and cross-linked with glutaraldehyde (MG53 oligomers); 75 mM Tris-HCl pH 7.5, 150 mM NaCl, 1% NP-40, 2 mM EGTA, with or without Ca2+; 2 hr at 4°C; only the target purified
[7] = biological target: W52R dysferlin C2A-GST fusion protein (aa 1-129 of human dysferlin) (human) (UniProt O75923); test: as above
[8] = biological target: wild-type dysferlin C2A-GST fusion protein (aa 1-129 of human dysferlin) (human) (UniProt O75923); test: as above
[9] = biological target: T1, FLAG-tagged full-length human MG53 (human); test: cross-linking; COS-7 lysate with FLAG-MG53, with 5 mM NEM or without DTT and NEM, 2 mM glutaraldehyde 5 min at room temperature, anti-FLAG immunoblot
[10] = biological target: c-myc-tagged human dysferlin deletion mutant aa 130-2080 (without the C2A domain) (human) (UniProt O75923); test: co-IP; COS-7 cells co-transfected with FLAG-MG53 and c-myc-dysferlin constructs, lysed 48 h later in 20 mM Tris-HCl pH 7.5, 150 mM NaCl, 1% NP-40 without CaCl2 and EGTA; IP with anti-FLAG (M2) or anti-c-myc (9E10), immunoblot
[11] = biological target: wild-type dysferlin C2A-GST fusion protein (aa 1-129 of human dysferlin) (human) (UniProt O75923); test: pull-down; C2A-GST fusion on glutathione Sepharose 4B; COS-7 lysate with FLAG-MG53 supplemented with 5 mM DTT and cross-linked with glutaraldehyde (MG53 monomers); with or without Ca2+; 2 hr at 4°C; only the target purified
[12] = biological target: W52R dysferlin C2A-GST fusion protein (aa 1-129 of human dysferlin) (human) (UniProt O75923); test: condition: only without NEM (MG53 dimers), in the presence of Ca2+; pull-down; C2A-GST fusion on glutathione Sepharose 4B; COS-7 lysate with FLAG-MG53 without DTT or NEM, cross-linked with glutaraldehyde (MG53 oligomers including dimers); free Ca2+ of 10 uM (printed 10 mM in the results); 2 hr at 4°C; only the target purified

B1: FLAG-tagged full-length human MG53 (protein, UniProt Q6ZMU5 1-477)
chain: MSAAPGLLHQELSCPLCLQLFDAPVTAECGHSFCRACLGRVAGEPAADGTVLCPCCQAPTRPQALSTNLQLARLVEGLAQVPQGHCEEHLDPLSIYCEQDRALVCGVCASLGSHRGHRLLPAAEAHARLKTQLPQQKLQLQEACMRKEKSVAVLEHQLVEVEETVRQFRGAVGEQLGKMRVFLAALEGSLDREAERVRGEAGVALRRELGSLNSYLEQLRQMEKVLEEVADKPQTEFLMKYCLVTSRLQKILAESPPPARLDIQLPIISDDFKFQVWRKMFRALMPALEELTFDPSSAHPSLVVSSSGRRVECSEQKAPPAGEDPRQFDKAVAVVAHQQLSEGEHYWEVDVGDKPRWALGVIAAEAPRRGRLHAVPSQGLWLLGLREGKILEAHVEAKEPRALRSPERRPTRIGLYLSFGDGVLSFYDASDADALVPLFAFHERLPRPVYPFFDVCWHDKGKNAQPLLLVGPEGAEA
In the case of B1, the binding [1] is reported as “binds”, the binding [2] is reported as “no binding” and the binding [3] is reported as “no binding (condition: with 5 mM DTT)”. The binding [4] was “no binding”, the binding [5] was “binds” and the binding [6] was “binds”. For the same binder, the binding [7] was “binds”, the binding [8] was “binds” and the binding [9] was “binds”. The binding [10] was “no binding”, the binding [11] was “no binding (condition: with 5 mM DTT (MG53 monomers))” and the binding [12] was “no binding”.
